# Out of some 310,000 compounds screened, about 14,000 (4.5%) showed an effect of 50% or more. The effect is printed as a negative number. The list shows a part of the results.
# Target: human ether-à-go-go-related gene (hERG) potassium channel (human, UniProt Q12809)
# Assay: primary screen, population patch clamp on CHO cells stably expressing hERG
# 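Also: peak tail current of the secondary pulse compared with the same well before compound.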
# Sequence of human ether-à-go-go-related gene (hERG) potassium channel (Q12809 whole entry, looked up): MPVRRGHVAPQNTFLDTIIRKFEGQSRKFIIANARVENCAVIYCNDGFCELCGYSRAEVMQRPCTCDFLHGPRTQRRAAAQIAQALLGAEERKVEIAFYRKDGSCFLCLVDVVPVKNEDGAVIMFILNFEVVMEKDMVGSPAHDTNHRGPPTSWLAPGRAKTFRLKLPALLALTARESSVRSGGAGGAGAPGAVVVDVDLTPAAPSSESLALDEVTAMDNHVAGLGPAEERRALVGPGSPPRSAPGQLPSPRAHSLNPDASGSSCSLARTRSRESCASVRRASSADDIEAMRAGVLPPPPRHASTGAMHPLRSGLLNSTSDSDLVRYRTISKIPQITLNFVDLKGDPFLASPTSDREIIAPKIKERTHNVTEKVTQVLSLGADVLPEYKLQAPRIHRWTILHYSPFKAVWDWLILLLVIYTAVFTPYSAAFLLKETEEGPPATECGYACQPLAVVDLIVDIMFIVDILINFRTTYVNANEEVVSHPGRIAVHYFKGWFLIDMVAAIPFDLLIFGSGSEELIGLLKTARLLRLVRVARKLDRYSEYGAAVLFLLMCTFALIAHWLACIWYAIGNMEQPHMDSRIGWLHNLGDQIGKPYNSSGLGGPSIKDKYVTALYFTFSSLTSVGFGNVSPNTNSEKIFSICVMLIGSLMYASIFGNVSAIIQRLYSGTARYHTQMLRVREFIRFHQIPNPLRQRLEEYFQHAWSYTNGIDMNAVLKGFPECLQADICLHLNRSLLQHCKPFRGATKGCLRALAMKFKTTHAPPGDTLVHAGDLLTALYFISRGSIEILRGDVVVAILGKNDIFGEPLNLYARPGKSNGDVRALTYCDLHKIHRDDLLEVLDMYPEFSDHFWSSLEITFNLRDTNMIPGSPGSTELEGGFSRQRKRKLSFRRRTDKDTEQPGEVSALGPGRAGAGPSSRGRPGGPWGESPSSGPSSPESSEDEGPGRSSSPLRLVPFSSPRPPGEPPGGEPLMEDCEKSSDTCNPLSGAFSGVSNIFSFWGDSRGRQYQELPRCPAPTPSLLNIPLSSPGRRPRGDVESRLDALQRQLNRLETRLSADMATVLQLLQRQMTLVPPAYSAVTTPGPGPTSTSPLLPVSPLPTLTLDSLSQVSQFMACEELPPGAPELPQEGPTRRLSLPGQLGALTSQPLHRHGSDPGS
row,SMILES,"hERG current change (%, negative = inhibition) at 10uM"
1,NC(=S)Nn1c(CCC(=O)O)ccc1-c1ccccc1,2.83%
2,COc1ccccc1C(=O)N/N=C(\C)CC(=O)Nc1ccccc1NC(C)=O,19.6%
3,CSC(=NC#N)N1CCN(C(c2ccccc2)c2ccccc2)CC1,-23.5%
4,C=CCN(CC=C)C(=O)C[n+]1ccc(C(N)=O)cc1.[Cl-],-0.0573%
5,CCNCCC(=O)N1c2ccccc2Sc2ccc(C(F)(F)F)cc21.Cl,0.883%
6,C=CCn1c(O)c(C=NC2CCN(Cc3ccccc3)CC2)c(=O)[nH]c1=O,-33.5%
7,Cc1ccc(NC(=O)c2ccc(Cl)c(S(=O)(=O)N3CCCCC3)c2)nc1,-23.4%
8,S=C(NCc1cccs1)Nc1cccc(Cl)c1,-6.52%
9,O=C(N/N=C\c1c(O)ccc2ccccc12)c1ccc(S(=O)(=O)N2CCCCC2)cc1,-3.55%
10,COc1ccc(N2CCN(Cc3cc4c(cc3Br)OCCO4)CC2)cc1,6.7%
11,CCCc1cc(=O)oc2c3c(c4c(c12)OC(C)(C)C=C4)OC(C)C(C)C3O (stereo not drawn),9.1%
12,Cc1ccc(NC(=S)N(CCN2CCOCC2)Cc2ccccc2F)cc1Cl,-12.3%
13,CCN1CC=C2C(C1)C(c1ccc(Cl)s1)C(C#N)=C(N)C2(C#N)C#N (stereo not drawn),-25.9%
14,O=C(COc1ccccc1)Nc1nonc1NC(=O)COc1ccccc1,-12.8%
15,CSc1ccc(C(=O)C2CCCN(Cc3cnc(SC)nc3)C2)cc1 (stereo not drawn),-76.4%
16,COc1cc(CNCCSc2nnnn2C)cc(Br)c1OCc1ccccc1.Cl,-56.3%
17,COc1ccc(C(CNC(=O)Nc2cccc(C)c2)N2CCN(C)CC2)cc1 (stereo not drawn),-14.5%
18,COC(=O)C(C)NC(=O)c1cn(-c2ccccc2OC)c(=O)c2ccccc12 (stereo not drawn),15.6%
19,COc1ccc(C)cc1NC(=O)C1CCN(S(=O)(=O)c2ccccc2)CC1,3.67%
20,CC(C)(C)c1ccc(C(=O)NNC(=O)C(=O)N2CCCCC2)cc1,14.3%
21,COc1ccc(CCNC(=O)c2nnn(CC(=O)Nc3ccccc3C)c2N)cc1OC,16.3%
22,COC(=O)NC(NC(=S)Nc1ccc([N+](=O)[O-])cc1)C(Cl)(Cl)Cl (stereo not drawn),3.93%
23,O=C(NC(NC(=S)Nc1c(Cl)cccc1Cl)C(Cl)(Cl)Cl)OCc1ccccc1 (stereo not drawn),7.52%

row,SMILES,"hERG current change (%, negative = inhibition) at 10uM"
1,COc1ccc(NC(=O)Cn2nc(C)c([N+](=O)[O-])c2C)cn1,4.49%
2,COc1ccc(Cl)cc1NC(=O)COC(=O)C1CCCCC1,7.15%
3,Cc1nc2ccccc2n1CCOc1ccc(F)cc1,-19.8%
4,CCCn1c(=O)c(C(=O)Nc2ccccc2)c(O)c2ccccc21,0.0267%
5,Cc1ccc(S(=O)(=O)/N=C(\c2ccc(Cl)cc2)N2CCOCC2)cc1,-27.8%
6,COc1ccc(CN2CCNC(=O)C2CC(=O)NCCN2CCCCC2=O)c(F)c1 (stereo not drawn),19.1%
7,Cc1cc(C)n(-c2nc(NCCN(C)C)c3c4c(sc3n2)CCCC4)n1,-16.3%
8,CCc1ccc(NC(=S)NC2CCN(Cc3ccccc3)CC2)cc1,-36.9%
9,CCN1CC(CN(C)Cc2nc(-c3cccs3)no2)CC1=O (stereo not drawn),3.65%
10,COc1cc(/C=C/C(=O)OCC(=O)NCCc2ccccc2)ccc1OC(F)F,5.85%
11,COc1ccc(C(CNc2ccc(C(F)(F)F)cn2)N(C)C)cc1OC (stereo not drawn),-32.2%
12,CCOC(=O)CNC(=O)N1CCCC(N(C)CCc2ccccc2)C1 (stereo not drawn),-8.25%
13,Cn1c(SCc2ccc(Br)cc2)nnc1-c1ccccn1,-19.4%
14,Nc1ncnc(N2CCOCC2)c1N,-4.16%
15,CC(=O)NC12CC3CC(C1)CC(C(=O)N(C)Cc1cccc(Cl)c1Cl)(C3)C2,-25.3%
16,CCOC(=O)c1ccc(NC(=O)C2CC(=O)N(c3ccc4c(c3)OCCO4)C2)cc1 (stereo not drawn),10.7%
17,CC1CCCCN1C(=O)CSc1nnc(-c2ccco2)o1 (stereo not drawn),2.08%
18,NC(=O)NCc1ccc(F)cc1,11.8%
19,Cc1cc(NC(=O)CCN2C(=O)C3C4CCC(C4)C3C2=O)c(C)cc1Br (stereo not drawn),-17.6%
20,Nc1nc(-c2ccc3c(c2)CCCC3)cs1,-0.274%
21,COCCNC(=S)c1ccc(OC)cc1,-6.68%
22,CCCc1ccc(-c2ccc(-c3noc(-c4ccncc4)n3)cc2)nc1,-5.98%
23,Cc1c(Cl)cccc1NC(=O)CSc1nc2c(c(=O)[nH]1)CCCC2,15.1%

row,SMILES,"hERG current change (%, negative = inhibition) at 10uM"
1,CCOC(=O)c1cc(COc2cc(Cl)cc(Cl)c2)on1,12.8%
2,CCC1=NN(C(=O)Cc2ccc(OC)cc2)C(O)(C(F)(F)F)C1 (stereo not drawn),-6.51%
3,COc1ccc(N=Nc2[nH]c3ccc(C)cc3c2O)cc1,18.9%
4,Cc1ccc(S(=O)(=O)N(C)CC(=O)Nc2ccc(C)cn2)cc1,-14.5%
5,COc1ccc(/C=N/NC2=NCCCCC2)c(OC)c1.Cl,20.3%
6,COCCNC(=O)[C@H](C)[C@H]1C[C@]1(C)[C@H](NC(=O)OCc1ccccc1)c1ccccc1,-7.83%
7,Cc1cc(NC(=O)CCC(=O)N(CC(=O)NC2CCCC2)c2ccccc2)no1,7.27%
8,CCN(CC)S(=O)(=O)c1ccc(N=Cc2c(C)c(C#N)c(=O)n(C)c2O)cc1,0.71%
9,CSc1nc2cc3c(cc2n1C(=O)c1ccc(C)cc1)OCCO3,17.1%
10,COc1ccc(CCN(Cc2cccs2)S(=O)(=O)c2ccc(S(=O)(=O)N3CCC(C)CC3)cc2)cc1OC,16.7%
11,O=S(=O)(Nc1ccccc1Cl)c1cccc2nsnc12,-5.19%
12,C=CCSc1nc(N)c(C(=O)Nc2ccccc2C)cc1C(N)=O,6.27%
13,O=C(NNc1ccccc1)C(=O)N1CCCCC1,8.69%
14,CCCNC(=O)c1ccc(C2SCC(=O)N2Cc2ccccc2)cc1 (stereo not drawn),-5.51%
15,CCOc1ccc(C2NC(=O)c3n[nH]c(C)c32)cc1 (stereo not drawn),1.15%
16,Nc1nonc1C(=O)N/N=C\c1cc2c(cc1Cl)OCO2,12.2%
17,O=C(Nc1cccnc1)c1cc(-c2ccc(Cl)c(Cl)c2)on1,19.7%
18,COc1cccc(-n2ccnc2SCC(=O)Nc2cc(OC)ccc2OC)c1,-10.5%
19,COc1ccc(S(=O)(=O)NCCSCc2ccco2)cc1,-12.6%
20,CC(C)CNC(=O)C(=O)Nc1ccc2c(c1)N(S(=O)(=O)c1cccs1)CCC2,-1.04%
21,O=S(=O)(CS(=O)(=O)c1ccc(Cl)cc1)c1ccc(Cl)cc1,11.5%
22,Cc1cccc(N2C(=O)CC(Cn3nc(C)cc3C)C2=O)c1 (stereo not drawn),15.8%
23,CCOc1ccccc1C1C(C#N)=C(SCC(=O)OC)NC(=O)C1C(=O)OC (stereo not drawn),-20.1%

row,SMILES,"hERG current change (%, negative = inhibition) at 10uM"
1,CCN(CC(=O)Nc1ccc2c(c1)OCCO2)C(=O)CSCC(=O)Nc1ccc(C)cc1,-31.1%
2,Cc1ccc(C(C[N+](=O)[O-])c2c(C)cc3ccccn23)cc1 (stereo not drawn),3.84%
3,CCN(CC)C(=O)c1sc2nc(-c3ccncc3)[nH]c(=O)c2c1C,7.11%
4,O=C(NCCc1ccncc1)Nc1ccc(Cl)c(Cl)c1,-38.4%
5,N#Cc1c(NCc2ccccc2)ccnc1Cl,-27.3%
6,Cn1cc(S(=O)(=O)N2CCN(Cc3ccccc3)CC2)c(=O)n(C)c1=O,-13%
7,COc1ccc2[nH]c(C)c(C(=O)CN3CCOCC3)c2c1,7.05%
8,c1ccc2c3c(c(CN4CCCC4)cc2c1)COC3,-13.8%
9,NC(=O)c1ccc(-n2nnnc2SCC(=O)c2ccc(O)c(O)c2)cc1,28.3%
10,CCCc1cc(=O)[nH]c(SCC(=O)c2c(N)n(CC(C)C)c(=O)n(C)c2=O)n1,-15.5%
11,CC(OC(=O)c1ccc(Cl)nc1)C(=O)Nc1ccc(S(=O)(=O)N2CCCC2)cc1 (stereo not drawn),-40.3%
12,Cc1ccccc1-c1nc2sc(-c3ccccc3)cc2c(=O)o1,29.9%
13,Cc1ccnn1CC(=O)N/N=C/c1cccs1,-7.51%
14,Cc1ccc(-n2nc(CC#N)c(C#N)c2N)cc1,3.84%
15,COc1cc(/C=N/Nc2ccc([N+](=O)[O-])cc2S(=O)(=O)N2CCOCC2)cc(OC)c1OC,-3.33%
16,C/C(N)=C(/C#N)C(=O)CSc1cc(C)c2cc(C)cc(C)c2n1,2.54%
17,COC(=O)/C=C/C(=O)N1CCN(c2ccccc2C)CC1,-2.32%
18,CCOC(=O)C1(CCOc2ccccc2)CCN(Cc2nccn2CC)CC1,-58.2%
19,CCC1(C)Cc2c(sc3nnn(Cc4ccccc4Cl)c(=O)c23)CO1 (stereo not drawn),13.8%
20,O=C(CCn1ccc2cc(S(=O)(=O)N3CCCC3)ccc21)NCc1ccccc1,1.25%
21,Cc1cc(SCC(=O)N(C)c2c(N)n(Cc3ccccc3)c(=O)[nH]c2=O)nc2ccccc12,31.2%
